{"source": "PubChem BioAssay AID1346428", "about": "(National Center for Advancing Translational Sciences (NCATS), 2018)", "note": "“And” between values parts separate entries of the source, which are not always exact repeats. Equal values may be shown once. Screen size: about 48,000 compounds; about 1,200 (2.5%) were called active. About 2% were inconclusive and are not listed.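 Rule for the calls: active = activation of at least 60% and not above a set upper limit (about 1 call in 100 departs from these limits); inconclusive = activation of 40% to 60%, or above that upper limit; inactive = activation under 40%.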 The list shows a part of the results.", "data": [{"target": "Probable G-protein coupled receptor 32 (Homo sapiens) (UniProt O75388)", "sequence (O75388 whole entry, looked up)": "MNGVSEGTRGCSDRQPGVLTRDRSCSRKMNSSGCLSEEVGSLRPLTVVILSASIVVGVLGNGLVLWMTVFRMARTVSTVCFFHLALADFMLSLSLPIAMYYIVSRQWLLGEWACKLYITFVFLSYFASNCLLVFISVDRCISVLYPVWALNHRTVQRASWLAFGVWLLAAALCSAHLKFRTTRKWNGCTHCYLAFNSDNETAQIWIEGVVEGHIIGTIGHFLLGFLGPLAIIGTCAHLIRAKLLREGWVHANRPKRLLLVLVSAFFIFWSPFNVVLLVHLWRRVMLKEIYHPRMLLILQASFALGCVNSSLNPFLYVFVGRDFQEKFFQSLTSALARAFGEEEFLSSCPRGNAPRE", "experiment": "qHTS for Agonists of Human Resolvin D1 Receptor DRV1; note: 0% is about no effect", "settings": "CHO-K1 GPR32 beta-arrestin PathHunter luminescence, 90 min; at 76.9 µM; hits give high values; zero percent set by DMSO-only wells", "procedure,_shortened": "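CHO-K1 cells stably expressing ProLink-tagged GPR32 and Enzyme Activator-tagged beta-arrestin were seeded at 2,500 cells/well overnight, exposed to compounds for 90 min at 37 °C, then read by beta-Gal complementation chemiluminescence after 1 h detection reagent.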", "values": [{"smiles": "CC(C)(C)c1ccc(OCC(=O)Nc2ccc(C(=O)OC3CCCCC3)cc2)cc1", "activation": "inactive: -4.84%"}, {"smiles": "CCc1ccccc1NC(=O)c1oc(=O)c2ccccc2c1-c1ccccc1", "activation": "inactive: -26.8%"}, {"smiles": "CC(C)Cn1nc(NC(=O)c2cccc(Cl)c2)c2cc3ccccc3nc21", "activation": "inactive: -7.68%"}, {"smiles": "CCCCCN(CCCCC)C(=O)C(CCC(=O)O)NC(=O)c1ccc(Cl)c(Cl)c1", "note": "(stereo not drawn)", "activation": "inactive: 32.2% and inactive: -0.0349%"}, {"smiles": "CCCCOc1cccc(C(=O)Nc2sc3c(c2C(=O)OCC)CCCC3)c1", "activation": "inactive: -1.85%"}, {"smiles": "Cc1ccc2nc3c(cc(C#N)c(=O)n3-c3nnc(SCc4ccc(F)cc4)s3)c(=O)n2c1", "activation": "inactive: 7.28%"}, {"smiles": "Cc1cccc2c(=O)cc(CSc3ccccc3NC(=O)C(C)C)[nH]c12", "activation": "inactive: -10.4%"}, {"smiles": "COc1cccc(NC(=O)CSc2nc(=O)n(Cc3cccnc3)c3c2CCC3)c1", "activation": "inactive: -13.7%"}, {"smiles": "Cc1ccc(Sc2ccc(N3CCCC(C(=O)Nc4ccc(F)c(Cl)c4)C3)nn2)cc1", "note": "(stereo not drawn)", "activation": "inactive: 27.3%"}, {"smiles": "COc1ccc(CCNC(=O)CCCCn2c(=O)c3ccccc3n(Cc3cc(C)ccc3C)c2=O)cc1OC", "activation": "inactive: -4.73%"}, {"smiles": "CCCN(CCC)C(=O)Cn1c(=O)n(-c2ccc(OC)cc2OC)c(=O)c2c3c(sc21)CCC3", "activation": "inactive: -25.5%"}, {"smiles": "CCOc1ccc(CNC(=O)c2ccc3c(c2)c(C)c(C)n3C)cc1", "activation": "inactive: -19.1%"}, {"smiles": "CCOc1ccccc1NC(=O)Cn1c(=O)n(CC(=O)NCc2ccccc2Cl)c(=O)c2sccc21", "activation": "inactive: 11.6%"}, {"smiles": "COc1ccc(OCC(=O)Nc2ccc(-c3nc4cc(Cl)ccc4o3)cc2)cc1", "activation": "inactive: 3.24%"}, {"smiles": "CCCn1c2ccccc2c2cnn(CC(=O)NCC3CCN(Cc4ccc(C)cc4)CC3)c(=O)c21", "activation": "inactive: -0.152%"}, {"smiles": "CCOc1ccc(-n2c(SCc3ccccc3)nc3c([nH]c4ccccc43)c2=O)cc1", "activation": "inactive: -18.1%"}, {"smiles": "CC(C)C1N=C2c3ccccc3N=C(SCC(=O)NCc3ccc(Cl)cc3)N2C1=O", "note": "(stereo not drawn)", "activation": "inactive: -18.9%"}, {"smiles": "O=C(Nc1ccc2c(c1)CCCN2C(=O)c1cccs1)c1ccccc1", "activation": "inactive: -8.69%"}, {"smiles": "O=C(Cn1c(=O)n(Cc2ccccc2)c(=O)c2sc3ccccc3c21)Nc1ccccc1F", "activation": "inactive: -5.09%"}, {"smiles": "O=C(NC1CCCc2ccccc21)c1ccc2c(c1)sc1nc(-c3ccccc3)cn12", "note": "(stereo not drawn)", "activation": "inactive: -17.6%"}, {"smiles": "CC(=O)N1CCOc2cc(S(=O)(=O)NCc3ccc(F)cc3)c(C)cc21", "activation": "inactive: 20.9%"}, {"smiles": "COc1ccc(-n2nc(C(=O)N3CCN(c4ccccc4OC)CC3)c3c4ccccc4n(C)c3c2=O)cc1Cl", "activation": "inactive: -5.3%"}, {"smiles": "COc1ccccc1CNC(=O)CCCN1C(=O)CSc2c1c(C)nn2-c1ccccc1", "activation": "inactive: -17.7%"}, {"smiles": "COc1cccc(Oc2nc(C)nc3c2oc2ccccc23)c1", "activation": "inactive: -14.5%"}, {"smiles": "Cc1c(C(=O)NCc2cccc(Cl)c2)sc2nc[nH]c(=O)c12", "activation": "inactive: -10.2%"}, {"smiles": "CCOc1ccccc1NC(=O)C1CCN(S(=O)(=O)c2cccs2)CC1", "activation": "inactive: 18.8%"}, {"smiles": "CC(CNC(=O)CCc1cn(Cc2ccccc2Cl)c2ccccc12)c1ccccc1", "note": "(stereo not drawn)", "activation": "inactive: -29.8%"}, {"smiles": "CCCS(=O)(=O)c1nc(S(=O)(=O)c2ccc(C)cc2)c(NCc2ccccc2Cl)s1", "activation": "inactive: -20.1%"}, {"smiles": "Cc1nc(N2CCCC2)c2c(C(=O)Nc3cccc(Cl)c3)c(C)oc2n1", "activation": "inactive: -10.3%"}, {"smiles": "CCOc1ccc(NC(=O)Cn2ccn3nc(-c4ccc(OC)c(OC)c4)cc3c2=O)cc1", "activation": "inactive: -5.95%"}, {"smiles": "Cc1cc(C)cc(NC(=O)Nc2ccc3nc(N4CCN(C)CC4)cc(C)c3c2)c1", "activation": "inactive: 14%"}, {"smiles": "CC1(C)CC(=O)c2cc(C#N)c(=O)n(-c3ccc(Cl)cc3)c2C1", "activation": "inactive: -0.962%"}, {"smiles": "CCc1ccc(NC(=O)c2ccc(F)c(S(=O)(=O)N3CCN(c4ccc(OC)cc4)CC3)c2)cc1", "activation": "inactive: -12.2%"}, {"smiles": "Cc1ccsc1CN(C(=O)c1ccc(OCC(C)C)cc1)C1CCS(=O)(=O)C1", "note": "(stereo not drawn)", "activation": "inactive: -20%"}, {"smiles": "O=C(O)CCC(=O)Nc1sc2c(c1C(=O)Nc1ccccc1)CCCCC2", "activation": "inactive: 5.75%"}, {"smiles": "COc1ccc(NC(=O)Cn2cc(C(=O)c3ccccc3)c(=O)c3cc(OC)ccc32)c(OC)c1", "activation": "inactive: -8.86%"}, {"smiles": "Cc1ccc2oc(-c3cccc(NC(=O)Cc4ccc(Cl)cc4)c3)nc2c1", "activation": "inactive: -5.12%"}, {"smiles": "CCOC(=O)c1cccc(NS(=O)(=O)c2cc(-c3cnc(C4CC4)o3)ccc2C)c1", "activation": "inactive: 6.98%"}, {"smiles": "Cc1ccc(-n2c3nc(=O)[nH]c(=O)c-3cc3c(C)nn(-c4ccccc4)c32)cc1C", "activation": "inactive: 2.31%"}, {"smiles": "CCOC(=O)c1c(S(=O)(=O)N2CCCC(C(=O)Nc3ccc(C)cn3)C2)c(C)n(C)c1C", "note": "(stereo not drawn)", "activation": "inactive: -7.99%"}, {"smiles": "Cc1c(C(=O)OC(C)C)sc(NC(=O)C2c3ccccc3Oc3ccccc32)c1C(=O)OC(C)C", "activation": "inactive: 3.54%"}, {"smiles": "Cc1ccc(Sc2c(C)nn(C(=O)c3ccc(Cl)cc3)c2C)cc1", "activation": "inactive: -9.96%"}, {"smiles": "CCCCN(CCCC)CCC(O)c1cc2c(Cl)cc(Cl)cc2c2cc(C(F)(F)F)ccc12", "note": "(stereo not drawn)", "activation": "active: 98.9%"}, {"smiles": "C#C[C@]1(O)CC[C@H]2[C@@H]3CCc4cc(O)ccc4[C@H]3CC[C@@]21C", "activation": "inactive: 33.5%"}, {"smiles": "COCCCNC(=O)CCCn1c(SCC(=O)c2ccc(F)cc2)nc2c(sc3ccccc32)c1=O", "activation": "inactive: 5.09%"}, {"smiles": "COc1ccc(CNC(=O)CSc2ncc3c(n2)-c2ccc(Cl)cc2N(Cc2ccc(F)cc2)S3(=O)=O)cc1OC", "activation": "inactive: -28.4%"}, {"smiles": "CCOc1cc(Br)cc(C2NC(=O)c3c(sc4c3CCN(C)C4)N2)c1O", "note": "(stereo not drawn)", "activation": "inactive: -0.186%"}, {"smiles": "CN(C)c1ccc(CNC(=O)c2ccc(Cn3c(=O)c4cccn4c4cccnc43)cc2)cc1", "activation": "inactive: -8.55%"}, {"smiles": "CC(C)(C)c1ccc(C(=O)NCC(c2ccco2)S(=O)(=O)c2ccc(F)cc2)cc1", "note": "(stereo not drawn)", "activation": "inactive: -19.8%"}, {"smiles": "O=C(CSc1c2c(nc3ccccc13)CCC2)Nc1ccc(F)cc1", "activation": "inactive: -17.3%"}, {"smiles": "COc1ccc(Cn2c(C(=O)O)c(CNCc3ccco3)c3ccc(OC)cc32)cc1", "activation": "inactive: 31.3%"}, {"smiles": "COc1ccc(-n2cnc3cc(C(=O)NC4CCCC4)ccc32)cc1", "activation": "inactive: 13.9%"}, {"smiles": "CCOC(=O)c1ccc(NC(=O)CSc2nnc3c4ccccc4n(CC)c3n2)cc1", "activation": "inactive: 14.1%"}, {"smiles": "CCCOc1ccc(C(=O)N(Cc2ccccc2Cl)C2CCS(=O)(=O)C2)cc1", "note": "(stereo not drawn)", "activation": "inactive: -12.3%"}, {"smiles": "COc1ccc(C2=Nc3ccc(F)cc3NC(c3cccc(C(F)(F)F)c3)=N2)cc1", "activation": "inactive: -4.23%"}, {"smiles": "Cc1ccc(Cn2c(CNC(=O)CCc3ccccc3)nc3cccnc32)cc1", "activation": "inactive: -18.1%"}, {"smiles": "Cc1cccc(N2CCN(Cc3nnc(-c4ccccc4C)o3)CC2C)c1", "note": "(stereo not drawn)", "activation": "inactive: -16.1%"}, {"smiles": "CCc1ccc2ncc(C(=O)c3ccc(C)c(C)c3)c(N3CCC(C(N)=O)CC3)c2c1", "activation": "inactive: -11.7%"}, {"smiles": "COC(=O)c1ccccc1NC(=O)c1cnc(Nc2ccc(OC)cc2)c2ccccc12", "activation": "inactive: -9.37%"}, {"smiles": "CCCCOc1cccc(C(=O)N(Cc2ccc(N(C)C)cc2)C2CCS(=O)(=O)C2)c1", "note": "(stereo not drawn)", "activation": "inactive: -36.2%"}, {"smiles": "Cc1cc(-c2nc3ncccc3o2)ccc1NC(=O)c1ccccc1Br", "activation": "inactive: -7.66%"}, {"smiles": "O=C(Cn1cnc(S(=O)(=O)N2CCCC2)c1)Nc1cccc(Br)c1", "activation": "inactive: -18.4%"}, {"smiles": "Cc1ccc(CCNC(=O)CCCn2c(=O)c3ccccc3n(Cc3ccccc3C)c2=O)cc1", "activation": "inactive: -18.8%"}, {"smiles": "O=C(COc1ccc(F)cc1)NCC(c1ccc(Cl)cc1)N1CCCCC1", "note": "(stereo not drawn)", "activation": "inactive: -13.3%"}, {"smiles": "CC(=O)N1c2ccc(S(=O)(=O)N3CCCCCC3)cc2CC1C(=O)NCc1ccccc1C", "note": "(stereo not drawn)", "activation": "inactive: 0%"}, {"smiles": "NC(CCCP(=O)(O)O)C(=O)O", "note": "(stereo not drawn)", "activation": "inactive: 0.374%"}, {"smiles": "COc1cc(OC)c(-c2cc(C(=O)NCc3ccc(F)cc3)c3c(-c4ccccc4)[nH]nc3n2)cc1OC", "activation": "inactive: -21.2%"}, {"smiles": "COc1ccc(CCNC(=O)Cn2c(=O)n(-c3ccccc3)c(=O)c3c(C)c(C)sc32)cc1OC", "activation": "inactive: -0.407%"}, {"smiles": "Cc1ccc(-c2nc3ncccc3o2)cc1NC(=O)c1ccc(-c2ccc(Cl)cc2)o1", "activation": "inactive: -4.46%"}, {"smiles": "Cc1ccc(N(Cc2cccs2)C(=O)c2ccccc2Cl)cc1", "activation": "inactive: -17.9%"}, {"smiles": "Cc1cccc(N2CCN(S(=O)(=O)c3csc(C(N)=O)c3)CC2)c1C", "activation": "inactive: 7.62%"}, {"smiles": "Cc1cccc(NC(=O)CSc2nc(-c3ccco3)cc(C(F)(F)F)n2)c1C", "activation": "inactive: -3.97%"}, {"smiles": "CCOC(=O)c1ccc(NC(=O)c2cc3sccc3n2Cc2ccc(Cl)cc2)cc1", "activation": "inactive: -4.83%"}, {"smiles": "O=C(c1ccccc1Cl)N1CCCCC1CCN1CCCCC1", "note": "(stereo not drawn)", "activation": "inactive: -4.93%"}, {"smiles": "O=C(Nc1nnc2n1CCS2)c1ccc(F)cc1F", "activation": "inactive: -32.7%"}, {"smiles": "COc1ccc(C)cc1NC(=O)Cn1c(=O)n(Cc2nc(C)no2)c(=O)c2ccccc21", "activation": "inactive: -20.2%"}, {"smiles": "COc1ccc(NC(=O)C(C)N(c2ccccc2)S(C)(=O)=O)cc1", "note": "(stereo not drawn)", "activation": "inactive: 1.24%"}, {"smiles": "CCOc1ccccc1NC(=O)C(CC)Sc1nc2ccncc2[nH]1", "note": "(stereo not drawn)", "activation": "inactive: -8.99%"}, {"smiles": "COc1ccc(CCNC(=O)c2ccc(Cn3c(=O)c4ccccc4n(Cc4cccc(Cl)c4)c3=O)cc2)cc1OC", "activation": "inactive: -1.84%"}, {"smiles": "CCOc1ccc(CN2CCc3nc(Nc4ccc5c(c4)OCCO5)ncc3C2)cc1", "activation": "inactive: 5.56%"}, {"smiles": "Cc1nn2c(=O)cc(COC(=O)c3ccccc3NC(=O)C(C)Oc3ccccc3)nc2s1", "note": "(stereo not drawn)", "activation": "inactive: -4.95%"}, {"smiles": "CC(C)c1ccc(NS(=O)(=O)c2ccc3nc(-c4ccccc4)[nH]c3c2)cc1", "activation": "active: 110%"}, {"smiles": "COc1ccc(NCc2cc3cc4c(cc3n(CC(=O)Nc3cc(C)ccc3C)c2=O)OCCO4)cc1", "activation": "inactive: -26.4%"}]}]}
